Source: the supplement of paper PMC7125110
± gives the standard error. Variants at the background level are over-represented here.

B1: glmS ribozyme (parent)
chain: AUAAAAGCGCCAGAACUACAGAAAUGUAGUUGACGAGGAGGAGGUUUAUCGAAUUUUCGGCGGAUGCCUCCAAA

Assays:
Settings in all cases: with glucosamine-6-phosphate
[1] = variants of: B1; test: self-cleavage kobs at 640 uM GlcN6P; higher = faster cleavage; RNA array
Outline: (§1)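 kobs was derived by fitting per-tile medians to one- or two-exponential decays after normalising signals to baseline and to non-cleaving reference variants. Those signals came from barcoded ribozyme variants transcribed in situ by E. coli RNA polymerase on sequenced MiSeq chips, followed through a hybridised Cy3 probe at 37 °C and imaged over ~14 h. Glucosamine-6-phosphate (40 μM to 10 mM) in HEPES/KCl/Mg(OAc)2 buffer was flowed in. Weighted Michaelis–Menten fits across concentrations then gave kcat and KM.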

[2] = variants of: B1; test: self-cleavage kobs at 160 uM GlcN6P; higher = faster cleavage; RNA array
Outline: as §1

[3] = variants of: B1; test: self-cleavage kobs at 2500 uM GlcN6P; higher = faster cleavage; RNA array
Outline: as §1

[4] = variants of: B1; test: self-cleavage kobs at 10000 uM GlcN6P; higher = faster cleavage; RNA array
Outline: as §1

Variant	self-cleavage kobs at 640 uM GlcN6P [1]	self-cleavage kobs at 160 uM GlcN6P [2]	self-cleavage kobs at 2500 uM GlcN6P [3]	self-cleavage kobs at 10000 uM GlcN6P [4]
G41U C67G	< 1e-05 s⁻¹	< 1e-05 s⁻¹	< 1e-05 s⁻¹	< 1e-05 s⁻¹
G41U U49G A64U	< 1e-05 s⁻¹		< 1e-05 s⁻¹	
G44A A48U U56G	< 1e-05 s⁻¹		< 1e-05 s⁻¹	
G43U G66U C71G	< 1e-05 s⁻¹		< 1e-05 s⁻¹	
G41U U47G G59U U65C	< 1e-05 s⁻¹	< 1e-05 s⁻¹	< 1e-05 s⁻¹	
G44A G51A U57G	< 1e-05 s⁻¹		< 1e-05 s⁻¹	
G43C C58G G59A A64G C67G	< 1e-05 s⁻¹	< 1e-05 s⁻¹	< 1e-05 s⁻¹	
G41U U47C U57G U69G	< 1e-05 s⁻¹			
G43C A52G	< 1e-05 s⁻¹	< 1e-05 s⁻¹		< 1e-05 s⁻¹
U45A A64C	7.26e-05 ± 1.9e-05 s⁻¹		0.000193 ± 3.8e-05 s⁻¹	0.000277 ± 7.6e-05 s⁻¹
G44A U57A C70A	< 1e-05 s⁻¹		< 1e-05 s⁻¹	
U47G A52U C68G	0.000113 ± 4.9e-05 s⁻¹			
G41U U56A G60A	< 1e-05 s⁻¹	< 1e-05 s⁻¹		
G41C A42U U54A	< 1e-05 s⁻¹			
G44U U56G	3.67e-05 ± 1.1e-05 s⁻¹		6.96e-05 ± 1.9e-05 s⁻¹	0.00015 ± 3.7e-05 s⁻¹
G41C A48U G51U U65C	< 1e-05 s⁻¹		< 1e-05 s⁻¹	
G40A G44A U56G C71G	< 1e-05 s⁻¹		< 1e-05 s⁻¹	
G41U G43U G59C	< 1e-05 s⁻¹			< 1e-05 s⁻¹
U45C A53C C67U	5.23e-05 ± 1.6e-05 s⁻¹	< 1e-05 s⁻¹	6.03e-05 ± 1.8e-05 s⁻¹	
A42G A53C G62A	< 1e-05 s⁻¹		< 1e-05 s⁻¹	
G43U A64C U65C	< 1e-05 s⁻¹	< 1e-05 s⁻¹	< 1e-05 s⁻¹	
G40C A48C U49A A53G	< 1e-05 s⁻¹	< 1e-05 s⁻¹		
A42C U54C A64G C68A	< 1e-05 s⁻¹	< 1e-05 s⁻¹	< 1e-05 s⁻¹	< 1e-05 s⁻¹

Variant	self-cleavage kobs at 640 uM GlcN6P [1]	self-cleavage kobs at 160 uM GlcN6P [2]	self-cleavage kobs at 2500 uM GlcN6P [3]	self-cleavage kobs at 10000 uM GlcN6P [4]
A39C G43A	< 1e-05 s⁻¹	< 1e-05 s⁻¹		
A39U U49C	< 1e-05 s⁻¹	< 1e-05 s⁻¹		< 1e-05 s⁻¹
A39U U49G	0.000168 ± 5.1e-05 s⁻¹			
A42G A48U C61A C67G	< 1e-05 s⁻¹		< 1e-05 s⁻¹	
U47C C68G	3.62e-05 ± 7.3e-06 s⁻¹		5.33e-05 ± 1.1e-05 s⁻¹	6.6e-05 ± 7.8e-06 s⁻¹
A42G G43C G62C C68G	< 1e-05 s⁻¹	< 1e-05 s⁻¹	< 1e-05 s⁻¹	
A48G A53U G62C	< 1e-05 s⁻¹	< 1e-05 s⁻¹		< 1e-05 s⁻¹
G44C A48U G62U U69C C70U	< 1e-05 s⁻¹		< 1e-05 s⁻¹	
G41A U46G C68U	< 1e-05 s⁻¹	< 1e-05 s⁻¹		
U45C C58G C61G	< 1e-05 s⁻¹			
G43C G44A	< 1e-05 s⁻¹	< 1e-05 s⁻¹	< 1e-05 s⁻¹	
G41U A52C C71A	< 1e-05 s⁻¹		< 1e-05 s⁻¹	
U45G C61U C70G	< 1e-05 s⁻¹			
G41U C68U U69C	< 1e-05 s⁻¹	< 1e-05 s⁻¹	< 1e-05 s⁻¹	
U47G C70U C71G	0.000118 ± 2.3e-05 s⁻¹			
A48C C70U	8.59e-05 ± 1.5e-05 s⁻¹		0.000254 ± 3.9e-05 s⁻¹	0.000401 ± 7.4e-05 s⁻¹
G41A C50A G51C A53U	< 1e-05 s⁻¹	< 1e-05 s⁻¹	< 1e-05 s⁻¹	
U46G C58A G59U U65A	< 1e-05 s⁻¹		< 1e-05 s⁻¹	
A39U C61G C67G	< 1e-05 s⁻¹		< 1e-05 s⁻¹	
G43A U46C U54A U56A U69C	< 1e-05 s⁻¹			
G40A A42G G51U U57A U69C	< 1e-05 s⁻¹			
A42C A48G U55A	< 1e-05 s⁻¹	< 1e-05 s⁻¹		
A39U U46G A48U G63U	< 1e-05 s⁻¹			

Variant	self-cleavage kobs at 640 uM GlcN6P [1]	self-cleavage kobs at 160 uM GlcN6P [2]	self-cleavage kobs at 2500 uM GlcN6P [3]	self-cleavage kobs at 10000 uM GlcN6P [4]
G41A C67A C68A	< 1e-05 s⁻¹	< 1e-05 s⁻¹		
G41C G66U	< 1e-05 s⁻¹	< 1e-05 s⁻¹		
G38U U55C U56G	< 1e-05 s⁻¹			
G40A U54G A64U	< 1e-05 s⁻¹			
G41U G51U G62U	< 1e-05 s⁻¹			
G43A G62U C71A	< 1e-05 s⁻¹	< 1e-05 s⁻¹		
G40U G44U C68U	< 1e-05 s⁻¹			
G43A C50A U55C C70A	< 1e-05 s⁻¹		< 1e-05 s⁻¹	< 1e-05 s⁻¹
G41C U65C C67G	< 1e-05 s⁻¹	< 1e-05 s⁻¹	< 1e-05 s⁻¹	
G40U U45G C58U	< 1e-05 s⁻¹	< 1e-05 s⁻¹		< 1e-05 s⁻¹
G43A A48G A53U G62C	< 1e-05 s⁻¹			
A42U G44U C70G	< 1e-05 s⁻¹	< 1e-05 s⁻¹	< 1e-05 s⁻¹	
U46A A52G G59U G66A C70U	< 1e-05 s⁻¹	< 1e-05 s⁻¹	< 1e-05 s⁻¹	
U45G U47G	0.00314 ± 0.00086 s⁻¹	0.000328 ± 9.1e-05 s⁻¹	0.00347 ± 0.00055 s⁻¹	
A39G A52C A53U C70G	< 1e-05 s⁻¹			< 1e-05 s⁻¹
U46C G63U C70U	< 1e-05 s⁻¹			< 1e-05 s⁻¹
A39U G41A	0.00014 ± 1.5e-05 s⁻¹	5.88e-05 ± 1.3e-05 s⁻¹	0.00025 ± 2.7e-05 s⁻¹	0.000257 ± 3e-05 s⁻¹
G43U U45A C50G A52U U56A C68G U69A	< 1e-05 s⁻¹		< 1e-05 s⁻¹	< 1e-05 s⁻¹
U46C A48U G51C	< 1e-05 s⁻¹		< 1e-05 s⁻¹	
G44C U47G A53C A64U	< 1e-05 s⁻¹	< 1e-05 s⁻¹	< 1e-05 s⁻¹	
U47A A52U	7.72e-05 ± 1.5e-05 s⁻¹		0.000158 ± 3e-05 s⁻¹	0.000299 ± 4.3e-05 s⁻¹
U45A G60U	< 1e-05 s⁻¹			
G40U G41C C61U	< 1e-05 s⁻¹	< 1e-05 s⁻¹		

Variant	self-cleavage kobs at 640 uM GlcN6P [1]	self-cleavage kobs at 160 uM GlcN6P [2]	self-cleavage kobs at 2500 uM GlcN6P [3]	self-cleavage kobs at 10000 uM GlcN6P [4]
G41U U45C	0.000157 ± 4e-05 s⁻¹	4.06e-05 ± 1.5e-05 s⁻¹	0.000273 ± 5.6e-05 s⁻¹	0.000331 ± 4.7e-05 s⁻¹
G43A G51C	< 1e-05 s⁻¹	< 1e-05 s⁻¹	< 1e-05 s⁻¹	< 1e-05 s⁻¹
G43C G60A G63U	< 1e-05 s⁻¹	< 1e-05 s⁻¹		
A48C G66C C71G	< 1e-05 s⁻¹	< 1e-05 s⁻¹		
G44C G63A	< 1e-05 s⁻¹	< 1e-05 s⁻¹	< 1e-05 s⁻¹	
U45G A52C U55C C61U	< 1e-05 s⁻¹		< 1e-05 s⁻¹	
U45A G59U C70A	< 1e-05 s⁻¹		< 1e-05 s⁻¹	
G40C A42G C58A	< 1e-05 s⁻¹	< 1e-05 s⁻¹		
G41A A42G U45G	0.0066 ± 0.002 s⁻¹			
G41C G51U U55G	< 1e-05 s⁻¹		< 1e-05 s⁻¹	
G41U U56A C70A	0.0096 ± 0.0018 s⁻¹	0.00226 ± 0.00043 s⁻¹	0.033 ± 0.0088 s⁻¹	0.0192 ± 0.0059 s⁻¹
A39G G51U G63U	< 1e-05 s⁻¹		< 1e-05 s⁻¹	
A42C U56C G60U	< 1e-05 s⁻¹			
U47G U54C	0.0026 ± 0.00053 s⁻¹	0.000851 ± 0.00032 s⁻¹	0.00468 ± 0.00094 s⁻¹	0.0139 ± 0.0032 s⁻¹
A39C U49C A52U	< 1e-05 s⁻¹		< 1e-05 s⁻¹	
G41C U49C U54G G66C	< 1e-05 s⁻¹			
G44C U45A A52U	< 1e-05 s⁻¹		< 1e-05 s⁻¹	
G44U G60A	< 1e-05 s⁻¹	< 1e-05 s⁻¹	< 1e-05 s⁻¹	< 1e-05 s⁻¹
A42U U55A G60A C71G	< 1e-05 s⁻¹	< 1e-05 s⁻¹	< 1e-05 s⁻¹	
A42C U46C	< 1e-05 s⁻¹	< 1e-05 s⁻¹		
A39C G60U	< 1e-05 s⁻¹			< 1e-05 s⁻¹
G40U U56C U57A	< 1e-05 s⁻¹	< 1e-05 s⁻¹		
G40C A64U	< 1e-05 s⁻¹	< 1e-05 s⁻¹		

Variant	self-cleavage kobs at 640 uM GlcN6P [1]	self-cleavage kobs at 160 uM GlcN6P [2]	self-cleavage kobs at 2500 uM GlcN6P [3]	self-cleavage kobs at 10000 uM GlcN6P [4]
G40U G63A C71A	< 1e-05 s⁻¹	< 1e-05 s⁻¹		< 1e-05 s⁻¹
A42C A48G U54G	< 1e-05 s⁻¹			
U46G G59A	< 1e-05 s⁻¹	< 1e-05 s⁻¹		
U46C C58U G59A	< 1e-05 s⁻¹			
G41C U46G G63A G66A	< 1e-05 s⁻¹		< 1e-05 s⁻¹	
U46G A53G C70A	0.000507 ± 0.0001 s⁻¹			
U45C A48U G59U C67U	< 1e-05 s⁻¹			
U45G A53G G62A A64C	< 1e-05 s⁻¹		< 1e-05 s⁻¹	
A42C C70U C71U	< 1e-05 s⁻¹	< 1e-05 s⁻¹		
A42U U55C U57C	< 1e-05 s⁻¹	< 1e-05 s⁻¹		
U46C G60C C68G	< 1e-05 s⁻¹			
G43U A52C G66C C68G	< 1e-05 s⁻¹		< 1e-05 s⁻¹	
G43A U55C	< 1e-05 s⁻¹			
G40C G60A C70A	< 1e-05 s⁻¹			
U46G A52C C70G	< 1e-05 s⁻¹	< 1e-05 s⁻¹		< 1e-05 s⁻¹
G41U G43C G62C	< 1e-05 s⁻¹		< 1e-05 s⁻¹	
G43U G44U A48U	< 1e-05 s⁻¹		< 1e-05 s⁻¹	
G41U U47G C50G	< 1e-05 s⁻¹			
A39C G44U G59C	< 1e-05 s⁻¹		< 1e-05 s⁻¹	
